The results in this text go back to the supplement of paper PMC12217912.

The other results are listed elsewhere or left out. The full chains were built here from the parent and the listed change. Inactive controls read about 0.05.

The labels stand for the following.
B1: TEV protease; numbered along this chain (parent)
chain: MGESLFKGPRDYNPISSSICHLTNESDGHTTSLYGIGFGPFIITNKHLFRRNNGTLVVQSLHGVFKVKDTTTLQQHLVDGRDMIIIRMPKDFPPFPQKLKFREPQREERICLVTTNFQTKSMSSMVSDTSCTFPSGDGIFWKHWIQTKDGQCGSPLVSTRDGFIVGIHSASNFTNTNNYFTSVPKNFMELLTNQEAQQWVSGWRLNADSVLWGGHKVFMVKPEEPFQPVKEATQL

Variants of B1 are the subject of this assay. Put plainly: raw area under fraction-flipped curve 0-4 h after induction (AUC4h, not background-subtracted), DNA-recorder readout of cleavage of the substrate (dimensionless); higher = more cleavage of the substrate by the protease variant. Conditions: temperature: 34 °C; time window: 0-4 h after rhamnose induction.
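Also: Bxb1 expression induced with 0.2% (w/v) L-rhamnose at OD600 near 0.5, cultures sampled hourly, flipped fraction per protease–substrate barcode pair counted by paired-end Illumina sequencing.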

For the variant MGESLFKGPRDYNPISSSICHLTNESDGHTTSLYGIGFGPFIITNKHLFRRNNGTLVVQSLHGVFKVKDTTTLQQHLVDGRDMIIIRMPKDFPPFPQKLKFREPQREERICLVTTNFQTKSMSSMVSDTSCTFPSGDGIFWKHWIQTKDGQCGSPLVSTRDGFIVGIHSASNFTNTNNYFTSVPKNFMELLTNQEAQQWVSGWRLNADSVLWGGHKVFMVKPEEPFCPVKEATQL [Q227C], the “area with substrate ECLYFQS” value came to 0.109, the “area with substrate EDLYFQS” value came out at 0.12, the “area with substrate EHLYFQS” value worked out at 0.0977 and the “area with substrate EILYFQS” value is 0.0829. For the same variant, the “area with substrate EKLYFQS” value stood at 0.115, the “area with substrate ELLYFQS” value stood at 0.0805, the “area with substrate EPLYFQS” value was found to be 0.113 and the “area with substrate EQLYFQS” value came out at 0.115. The “area with substrate ESLYFQS” value was 0.0875 and the “area with substrate EVLYFQS” value was 0.0868.
MGESLFKGPRDYNPISSSICHLTNESDGHTTSLYGIGFGPFIITNKHLFRRNNGTLVVQSLHGVFKVKDTTTLQQHLVDGRDMIIIRMPKDFPPFPQKLKFREPQREERICLVTTNFQTKSMSSMVSDTSCTFPSGDGIFWKHWIQTKDGQCGSPLVSTRDGFIVGIHSASNFTNTNNYFTSVPKNFMELLTNQEAQQWVSGWRLNADSVLWGGHKVFMVKPSEPFQPVKEATQL [E223S]: the “area with substrate ECLYFQS” value worked out at 0.112, the “area with substrate EDLYFQS” value came out at 0.104, the “area with substrate EELYFQS” value was found to be 0.114 and the “area with substrate EGLYFQS” value was 0.106. The “area with substrate EHLYFQS” value came out at 0.101, the “area with substrate EILYFQS” value was determined as 0.0559, the “area with substrate EKLYFQS” value came to 0.0855 and the “area with substrate ELLYFQS” value is 0.121. The “area with substrate EMLYFQS” value was 0.151, the “area with substrate EQLYFQS” value stood at 0.109, the “area with substrate ERLYFQS” value is 0.0859 and the “area with substrate ESLYFQS” value came out at 0.0925. In addition, the “area with substrate EWLYFQS” value stood at 0.0861.
As for MGESLFKGPRDYNPISSSICHLTNESDGHTTSLYGIGFGPFIITNKHLFRRNNGTLVVQSLHGVFKVKDTTTLQQHLVDGRDMIIIRMPKDFPPFPQKLKFREPQREERICLVTTNFQTKSMSSMVSDTSCTFPSGDGIFWKHWIQTKDGQCGSPLVSTRDGFIVGIHSASNFTNTNNYFTSVPKNFMELLTNQEAQQWVSGWRLNADSVLWGGHKVFMVWPEEPFQPVKEATQL [K221W], the “area with substrate ECLYFQS” value amounted to 0.0776, the “area with substrate EDLYFQS” value was 0.0831, the “area with substrate EILYFQS” value is 0.0832 and the “area with substrate ELLYFQS” value worked out at 0.0795. Further, the “area with substrate EQLYFQS” value is 0.0734, the “area with substrate ERLYFQS” value stood at 0.0661, the “area with substrate ESLYFQS” value is 0.0757 and the “area with substrate EVLYFQS” value worked out at 0.0812.
Consider MGESLFKGPRDYNPISSSICHLTNESDGHTTSLYGIGFGPFIITNKHLFRRNNGTLVVQSLHGVFKVKDTTTLQQHLVDGRDMIIIRMPKDFPPFPQKLKFREPQREERICLVTTNFQTKSMSSMVSDTSCTFPSGDGIFWKHWIQTKDGQCGSPLVSTRDGFIVGIHSASNFTNTNNYFTSVPKNFMELLTNQEAQQWVSGWRLNADSVLWGGHKVFMVKPEEPFQGVKEATQL [P228G], for which the “area with substrate ECLYFQS” value is 0.0844, the “area with substrate EELYFQS” value turned out to be 0.149, the “area with substrate EGLYFQS” value was 0.104 and the “area with substrate EILYFQS” value amounted to 0.104. Moreover, the “area with substrate EKLYFQS” value was 0.105, the “area with substrate ELLYFQS” value was 0.105, the “area with substrate EMLYFQS” value amounted to 0.0983 and the “area with substrate EPLYFQS” value turned out to be 0.108. For the same variant, the “area with substrate ERLYFQS” value was determined as 0.102, the “area with substrate ESLYFQS” value was 0.099, the “area with substrate EVLYFQS” value stood at 0.1 and the “area with substrate EWLYFQS” value is 0.106.
Consider MGESLFKGPRDYNPISSSICHLTNESDGHTTSLYGIGFGPFIITNKHLFRRNNGTLVVQSLHGVFKVKDTTTLQQHLVDGRDMIIIRMPKDFPPFPQKLKFREPQREERICLVTTNFQTKSMSSMVSDTSCTFPSGDGIFWKHWIQTKDGQCGSPLVSTRDGFIVGIHSASNFTNTNNYFTSVPKNFMELLTNQEAQQWVSGWRLNADSVLWGGHKVFNVKPEEPFQPVKEATQL [M219N], for which the “area with substrate ECLYFQS” value worked out at 0.0871, the “area with substrate EELYFQS” value came to 0.112, the “area with substrate EILYFQS” value was 0.0661 and the “area with substrate EKLYFQS” value was determined as 0.122. Moreover, the “area with substrate ELLYFQS” value is 0.0426, the “area with substrate ETLYFQS” value is 0.0814 and the “area with substrate EVLYFQS” value stood at 0.0973.
Take MGESLFKGPRDYNPISSSICHLTNESDGHTTSLYGIGFGPFIITNKHLFRRNNGTLVVQSLHGVFKVKDTTTLQQHLVDGRDMIIIRMPKDFPPFPQKLKFREPQREERICLVTTNFQTKSMSSMVSDTSCTFPSGDGIFWKHWIQTKDGQCGSPLVSTRDGFIVGIHSASNFTNTNNYFTSVPKNFMELLTNQEAQQWVSGWRLNADSVLWGGHKVFMVKPEGPFQPVKEATQL [E224G]: the “area with substrate ECLYFQS” value came to 0.0912, the “area with substrate EDLYFQS” value was 0.14, the “area with substrate EGLYFQS” value stood at 0.103 and the “area with substrate EILYFQS” value was 0.0975. Also, the “area with substrate ELLYFQS” value came out at 0.0886, the “area with substrate EMLYFQS” value amounted to 0.133, the “area with substrate EQLYFQS” value worked out at 0.135 and the “area with substrate ERLYFQS” value was 0.108. The “area with substrate ESLYFQS” value amounted to 0.086 and the “area with substrate ETLYFQS” value stood at 0.107.
For the variant MGESLFKGPRDYNPISSSICHLTNESDGHTTSLYGIGFGPFIITNKHLFRRNNGTLVVQSLHGVFKVKDTTTLQQHLVDGRDMIIIRMPKDFPPFPQKLKFREPQREERICLVTTNFQTKSMSSMVSDTSCTFPSGDGIFWKHWIQTKDGQCGSPLVSTRDGFIVGIHSASNFTNTNNYFTSVPKNFMELLTNQEAQQWVSGWRLNADSVLWGGHKVFMVKPEEGFQPVKEATQL [P225G], the “area with substrate ECLYFQS” value turned out to be 0.126, the “area with substrate EDLYFQS” value was 0.0859, the “area with substrate EELYFQS” value was 0.0924 and the “area with substrate EFLYFQS” value is 0.118. Moreover, the “area with substrate EGLYFQS” value came to 0.0857, the “area with substrate EHLYFQS” value was 0.104, the “area with substrate EILYFQS” value stood at 0.0916 and the “area with substrate EKLYFQS” value is 0.105. In addition, the “area with substrate ELLYFQS” value is 0.0897, the “area with substrate EMLYFQS” value is 0.11, the “area with substrate EQLYFQS” value was found to be 0.141 and the “area with substrate ERLYFQS” value was found to be 0.122. Also, the “area with substrate ESLYFQS” value came out at 0.102, the “area with substrate ETLYFQS” value turned out to be 0.145, the “area with substrate EVLYFQS” value came to 0.0963 and the “area with substrate EWLYFQS” value was determined as 0.0862.
As to MGESLFKGPRDYNPISSSICHLTNESDGHTTSLYGIGFGPFIITNKHLFRRNNGTLVVQSLHGVFKVKDTTTLQQHLVDGRDMIIIRMPKDFPPFPQKLKFREPQREERICLVTTNFQTKSMSSMVSDTSCTFPSGDGIFWKHWIQTKDGQCGSPLVSTRDGFIVGIHSASNFTNTNNYFTSVPKNFMELLTNQEAQQWVSGWRLNADSVLWGGHKVFMVKPEENFQPVKEATQL [P225N], the “area with substrate ECLYFQS” value is 0.117, the “area with substrate EELYFQS” value was found to be 0.104, the “area with substrate EGLYFQS” value stood at 0.104 and the “area with substrate EHLYFQS” value was 0.117. The “area with substrate EILYFQS” value is 0.11, the “area with substrate EKLYFQS” value was found to be 0.106, the “area with substrate EMLYFQS” value stood at 0.0846 and the “area with substrate EQLYFQS” value stood at 0.103. The “area with substrate ERLYFQS” value is 0.0951, the “area with substrate ESLYFQS” value stood at 0.118, the “area with substrate EVLYFQS” value amounted to 0.0938 and the “area with substrate EWLYFQS” value was found to be 0.102.
For MGESLFKGPRDYNPISSSICHLTNESDGHTTSLYGIGFGPFIITNKHLFRRNNGTLVVQSLHGVFKVKDTTTLQQHLVDGRDMIIIRMPKDFPPFPQKLKFREPQREERICLVTTNFQTKSMSSMVSDTSCTFPSGDGIFWKHWIQTKDGQCGSPLVSTRDGFIVGIHSASNFTNTNNYFTSVPKNFMELLTNQEAQQWVSGWRLNADSVLWGGHKVFMVKPEEHFQPVKEATQL [P225H], the “area with substrate ECLYFQS” value came out at 0.0806, the “area with substrate EDLYFQS” value turned out to be 0.123, the “area with substrate EILYFQS” value came out at 0.095 and the “area with substrate EPLYFQS” value was 0.0734. The “area with substrate EQLYFQS” value was found to be 0.14, the “area with substrate ERLYFQS” value was 0.0839, the “area with substrate ESLYFQS” value worked out at 0.141 and the “area with substrate ETLYFQS” value stood at 0.127. Besides, the “area with substrate EVLYFQS” value amounted to 0.0875, the “area with substrate EWLYFQS” value turned out to be 0.0633 and the “area with substrate EYLYFQS” value amounted to 0.0765.
